# In the supplement of paper PMC8728848:
# The other results are listed elsewhere or left out.
# B1: AidA (Burkholderia cenocepacia) (protein)
# chain: MSRVTDVLVSFDTETILKKYPNPSKNPAAPTLIDWRYVYMVTNQDNVISGQAGGELDLKAQVGDLIRWRETSLSLGFENQVVFYKFIGNVGNDLISTPTPRVAEASIPVPNTSKPEVPTCQKVANYYWSSECLKVGRVTYHFQFQIIDRNCQSQGCFSWDPFISIHN
# Key:
# Test in all cases: glycan array binding signal (z-score within array); higher = stronger binding
# Conditions in all cases: glycan notation: IUPAC condensed, linker removed
# [1] = target: Gal(b1-4)GlcNAc(b1-3)Gal(b1-4)GlcNAc(b1-3)Gal(b1-4)GlcNAc(b1-3)Gal(b1-4)GlcNAc(b1-2)Man(a1-3)[Gal(b1-4)GlcNAc(b1-3)Gal(b1-4)GlcNAc(b1-3)Gal(b1-4)GlcNAc(b1-3)Gal(b1-4)GlcNAc(b1-2)Man(a1-6)]Man(b1-4)GlcNAc(b1-4)[Fuc(a1-6)]GlcNAc
# How it was run: (§1)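 From the Consortium for Functional Glycomics database, 3228 arrays were curated, keeping only those whose protein sequence was available. Binding is given as a within-array Z-score averaged across arrays sharing a protein sequence and across linkers. Negative Z-scores can be read as non-binding.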
# [2] = target: Gal(b1-4)GlcNAc(b1-3)Gal(b1-4)GlcNAc(b1-3)Gal(b1-4)GlcNAc(b1-3)Gal(b1-4)GlcNAc(b1-2)[Gal(b1-4)GlcNAc(b1-3)Gal(b1-4)GlcNAc(b1-3)Gal(b1-4)GlcNAc(b1-3)Gal(b1-4)GlcNAc(b1-6)]Man(a1-6)[Gal(b1-4)GlcNAc(b1-3)Gal(b1-4)GlcNAc(b1-3)Gal(b1-4)GlcNAc(b1-3)Gal(b1-4)GlcNAc(b1-2)Man(a1-3)]Man(b1-4)GlcNAc(b1-4)[Fuc(a1-6)]GlcNAc
# How it was run: as §1
# [3] = target: Gal(b1-4)GlcNAc(b1-3)Gal(b1-4)GlcNAc(b1-3)Gal(b1-4)GlcNAc(b1-3)Gal(b1-4)GlcNAc(b1-3)Gal(b1-4)GlcNAc(b1-2)Man(a1-3)[Gal(b1-4)GlcNAc(b1-3)Gal(b1-4)GlcNAc(b1-3)Gal(b1-4)GlcNAc(b1-3)Gal(b1-4)GlcNAc(b1-3)Gal(b1-4)GlcNAc(b1-2)Man(a1-6)]Man(b1-4)GlcNAc(b1-4)GlcNAc
# How it was run: as §1
# [4] = target: Gal(b1-4)GlcNAc(b1-3)Gal(b1-4)GlcNAc(b1-3)Gal(b1-4)GlcNAc(b1-3)Gal(b1-4)GlcNAc(b1-3)Gal(b1-4)GlcNAc(b1-2)Man(a1-3)[Gal(b1-4)GlcNAc(b1-3)Gal(b1-4)GlcNAc(b1-3)Gal(b1-4)GlcNAc(b1-3)Gal(b1-4)GlcNAc(b1-3)Gal(b1-4)GlcNAc(b1-2)Man(a1-6)]Man(b1-4)GlcNAc(b1-4)[Fuc(a1-6)]GlcNAc
# How it was run: as §1
# [5] = target: Gal(b1-4)GlcNAc(b1-3)Gal(b1-4)GlcNAc(b1-3)Gal(b1-4)GlcNAc(b1-3)Gal(b1-4)GlcNAc(b1-3)Gal(b1-4)GlcNAc(b1-2)[Gal(b1-4)GlcNAc(b1-3)Gal(b1-4)GlcNAc(b1-3)Gal(b1-4)GlcNAc(b1-3)Gal(b1-4)GlcNAc(b1-3)Gal(b1-4)GlcNAc(b1-6)]Man(a1-6)[Gal(b1-4)GlcNAc(b1-3)Gal(b1-4)GlcNAc(b1-3)Gal(b1-4)GlcNAc(b1-3)Gal(b1-4)GlcNAc(b1-3)Gal(b1-4)GlcNAc(b1-2)Man(a1-3)]Man(b1-4)GlcNAc(b1-4)[Fuc(a1-6)]GlcNAc
# How it was run: as §1
# [6] = target: Gal(b1-4)GlcNAc(b1-3)Gal(b1-4)GlcNAc(b1-3)Gal(b1-4)GlcNAc(b1-3)Gal(b1-4)GlcNAc(b1-3)Gal(b1-4)GlcNAc(b1-3)Gal(b1-4)GlcNAc(b1-2)Man(a1-3)[Gal(b1-4)GlcNAc(b1-3)Gal(b1-4)GlcNAc(b1-3)Gal(b1-4)GlcNAc(b1-3)Gal(b1-4)GlcNAc(b1-3)Gal(b1-4)GlcNAc(b1-3)Gal(b1-4)GlcNAc(b1-2)Man(a1-6)]Man(b1-4)GlcNAc(b1-4)GlcNAc
# How it was run: as §1
# [7] = target: Gal(b1-4)GlcNAc(b1-3)Gal(b1-4)GlcNAc(b1-3)GalNAc
# How it was run: as §1
# [8] = target: Gal(b1-4)GlcNAc(b1-3)Gal(b1-4)GlcNAc(b1-3)[Gal(b1-4)GlcNAc(b1-3)Gal(b1-4)GlcNAc(b1-6)]GalNAc
# How it was run: as §1
# [9] = target: Gal(b1-4)GlcNAc(b1-3)Gal(b1-4)GlcNAc(b1-6)[Gal(b1-3)]GalNAc
# How it was run: as §1
# [10] = target: Gal(b1-4)GlcNAc(b1-3)Gal(b1-4)[Fuc(a1-3)]GlcNAc(b1-3)Gal(b1-4)[Fuc(a1-3)]GlcNAc
# How it was run: as §1
# [11] = target: Gal(b1-4)GlcNAc(b1-3)GalNAc
# How it was run: as §1
# [12] = target: Gal(b1-4)GlcNAc(b1-3)[Fuc(a1-3)GlcNAc(b1-6)]Gal(b1-4)Glc
# How it was run: as §1
# [13] = target: Gal(b1-4)GlcNAc(b1-3)[Gal(b1-4)GlcNAc(b1-6)]Gal(b1-4)GlcNAc
# How it was run: as §1
# [14] = target: Gal(b1-4)GlcNAc(b1-3)[GlcNAc(b1-6)]Gal(b1-4)GlcNAc
# How it was run: as §1
# [15] = target: Gal(b1-4)GlcNAc(b1-6)Gal(b1-4)GlcNAc
# How it was run: as §1
# [16] = target: Gal(b1-4)GlcNAc(b1-6)GalNAc
# How it was run: as §1
# [17] = target: Gal(b1-4)GlcNAc(b1-6)[Gal(b1-3)]GalNAc
# How it was run: as §1
# [18] = target: Gal(b1-4)GlcNAc(b1-6)[Gal(b1-4)GlcNAc(b1-3)]GalNAc
# How it was run: as §1
# Gal(b1-4)GlcNAc6P = target: Gal(b1-4)GlcNAc6P
# How it was run: as §1
# Gal(b1-6)Gal = target: Gal(b1-6)Gal
# How it was run: as §1
# Gal3S(b1-3)GalNAc = target: Gal3S(b1-3)GalNAc
# How it was run: as §1
# Gal3S(b1-3)GlcNAc = target: Gal3S(b1-3)GlcNAc
# How it was run: as §1
# [19] = target: Gal3S(b1-3)[Fuc(a1-4)]GlcNAc
# How it was run: as §1
binder,measurement,setting,value
B1,glycan array binding signal (z-score),[1],0.416
same,glycan array binding signal (z-score),[2],-0.096
same,glycan array binding signal (z-score),[3],-0.488
same,glycan array binding signal (z-score),[4],-0.941
same,glycan array binding signal (z-score),[5],0.252
same,glycan array binding signal (z-score),[6],0.682
same,glycan array binding signal (z-score),[7],-0.662
same,glycan array binding signal (z-score),[8],-0.014
same,glycan array binding signal (z-score),[9],-0.423
same,glycan array binding signal (z-score),[10],-0.556
same,glycan array binding signal (z-score),[11],-0.375
same,glycan array binding signal (z-score),[12],-0.573
same,glycan array binding signal (z-score),[13],-0.337
same,glycan array binding signal (z-score),[14],-0.319
same,glycan array binding signal (z-score),[15],0.006
same,glycan array binding signal (z-score),[16],-0.507
same,glycan array binding signal (z-score),[17],-0.159
same,glycan array binding signal (z-score),[18],-0.26
same,glycan array binding signal (z-score),Gal(b1-4)GlcNAc6P,-0.044
same,glycan array binding signal (z-score),Gal(b1-6)Gal,-0.528
same,glycan array binding signal (z-score),Gal3S(b1-3)GalNAc,-0.316
same,glycan array binding signal (z-score),Gal3S(b1-3)GlcNAc,2.41
same,glycan array binding signal (z-score),[19],0.147
